In the supplement of paper PMC8728848:
Some of the results follow.

Legend:
Experiment in all cases: glycan array binding signal (z-score within array); higher = stronger binding
Settings in all cases: glycan notation: IUPAC condensed, linker removed
[1] = biological target: Gal(b1-4)GlcNAc(b1-3)Gal(b1-4)GlcNAc(b1-6)[Gal(b1-3)]GalNAc
Summary of the method: (§1)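 Glycan array binding is given as a within-array Z-score, which can be read as non-binding when negative. The arrays, 3228 of them, came from the Consortium for Functional Glycomics database and were retained only where the protein sequence was available. Z-scores were averaged across arrays of the same protein sequence at different concentrations or buffers and across linkers.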

[2] = biological target: Gal(b1-4)GlcNAc(b1-3)Gal(b1-4)[Fuc(a1-3)]GlcNAc(b1-3)Gal(b1-4)[Fuc(a1-3)]GlcNAc
Summary of the method: as §1

[3] = biological target: Gal(b1-4)GlcNAc(b1-3)GalNAc
Summary of the method: as §1

[4] = biological target: Gal(b1-4)GlcNAc(b1-3)[Fuc(a1-3)GlcNAc(b1-6)]Gal(b1-4)Glc
Summary of the method: as §1

[5] = biological target: Gal(b1-4)GlcNAc(b1-3)[Gal(b1-4)GlcNAc(b1-6)]Gal(b1-4)GlcNAc
Summary of the method: as §1

[6] = biological target: Gal(b1-4)GlcNAc(b1-3)[GlcNAc(b1-6)]Gal(b1-4)GlcNAc
Summary of the method: as §1

[7] = biological target: Gal(b1-4)GlcNAc(b1-6)Gal(b1-4)GlcNAc
Summary of the method: as §1

[8] = biological target: Gal(b1-4)GlcNAc(b1-6)GalNAc
Summary of the method: as §1

[9] = biological target: Gal(b1-4)GlcNAc(b1-6)[Gal(b1-3)]GalNAc
Summary of the method: as §1

[10] = biological target: Gal(b1-4)GlcNAc(b1-6)[Gal(b1-4)GlcNAc(b1-3)]GalNAc
Summary of the method: as §1

[11] = biological target: Gal(b1-4)GlcNAc6P
Summary of the method: as §1

[12] = biological target: Gal(b1-6)Gal
Summary of the method: as §1

[13] = biological target: Gal3S(b1-3)GalNAc
Summary of the method: as §1

[14] = biological target: Gal3S(b1-3)GlcNAc
Summary of the method: as §1

[15] = biological target: Gal3S(b1-3)[Fuc(a1-4)]GlcNAc
Summary of the method: as §1

[16] = biological target: Gal3S(b1-4)Glc
Summary of the method: as §1

[17] = biological target: Gal3S(b1-4)Glc6S
Summary of the method: as §1

[18] = biological target: Gal3S(b1-4)GlcNAc
Summary of the method: as §1

[19] = biological target: Gal3S(b1-4)[Fuc(a1-3)]Glc6S
Summary of the method: as §1

[20] = biological target: Gal3S(b1-4)[Fuc(a1-3)]GlcNAc
Summary of the method: as §1

[21] = biological target: Gal3S(b1-4)[Fuc(a1-3)]GlcNAc6S
Summary of the method: as §1

[22] = biological target: Gal3S4S(b1-4)GlcNAc
Summary of the method: as §1

[23] = biological target: Gal3S6S(b1-4)GlcNAc
Summary of the method: as §1

[24] = biological target: Gal3S6S(b1-4)GlcNAc6S
Summary of the method: as §1

[25] = biological target: Gal4S(b1-4)GlcNAc
Summary of the method: as §1

[26] = biological target: Gal4S6S(b1-4)GlcNAc
Summary of the method: as §1

[27] = biological target: Gal6P(b1-4)GlcNAc
Summary of the method: as §1

[28] = biological target: Gal6S(b1-3)GlcNAc
Summary of the method: as §1

[29] = biological target: Gal6S(b1-3)GlcNAc6S
Summary of the method: as §1

[30] = biological target: Gal6S(b1-4)Glc
Summary of the method: as §1

[31] = biological target: Gal6S(b1-4)Glc6S
Summary of the method: as §1

[32] = biological target: Gal6S(b1-4)GlcNAc
Summary of the method: as §1

[33] = biological target: Gal6S(b1-4)GlcNAc6S
Summary of the method: as §1

[34] = biological target: GalNAc(a1-3)Gal
Summary of the method: as §1

[35] = biological target: GalNAc(a1-3)GalNAc
Summary of the method: as §1

[36] = biological target: GalNAc(a1-3)GalNAc(b1-3)Gal(a1-4)Gal(b1-4)Glc
Summary of the method: as §1

[37] = biological target: GalNAc(a1-3)GalNAc(b1-3)Gal(a1-4)Gal(b1-4)GlcNAc
Summary of the method: as §1

[38] = biological target: GalNAc(b1-3)Gal
Summary of the method: as §1

[39] = biological target: GalNAc(b1-3)Gal(a1-4)Gal(b1-4)GlcNAc
Summary of the method: as §1

[40] = biological target: GalNAc(b1-3)Gal(a1-4)Gal(b1-4)GlcNAc(b1-3)Gal(b1-4)Glc
Summary of the method: as §1

[41] = biological target: GalNAc(b1-3)Gal(a1-6)Gal(b1-4)Glc
Summary of the method: as §1

[42] = biological target: GalNAc(b1-3)GalNAc
Summary of the method: as §1

[43] = biological target: GalNAc(b1-3)GlcNAc
Summary of the method: as §1

[44] = biological target: GalNAc(b1-4)Gal(b1-4)Glc
Summary of the method: as §1

[45] = biological target: GalNAc(b1-4)GlcNAc
Summary of the method: as §1

B1: GNL (Galanthus nivalis) (protein)
chain: MGHHHHHHHHYGTLENGHWLMVGMSIFSKDRTVELRMQDDGKLAIYYNDHCAWQSTAQQVNNAKGAVMQGDGNFCIYDKNGKATWHTNTAAPSGDSHTFVSVQDDGNLVLYKNNGATPIWSSKSNK
[1]
  glycan array binding signal (z-score): -0.128
[2]
  glycan array binding signal (z-score): -0.223
[3]
  glycan array binding signal (z-score): -0.205
[4]
  glycan array binding signal (z-score): -0.203
[5]
  glycan array binding signal (z-score): -0.254
[6]
  glycan array binding signal (z-score): -0.313
[7]
  glycan array binding signal (z-score): -0.222
[8]
  glycan array binding signal (z-score): -0.158
[9]
  glycan array binding signal (z-score): -0.166
[10]
  glycan array binding signal (z-score): -0.12
[11]
  glycan array binding signal (z-score): -0.248
[12]
  glycan array binding signal (z-score): -0.148
[13]
  glycan array binding signal (z-score): -0.242
[14]
  glycan array binding signal (z-score): -0.195
[15]
  glycan array binding signal (z-score): -0.15
[16]
  glycan array binding signal (z-score): -0.164
[17]
  glycan array binding signal (z-score): -0.206
[18]
  glycan array binding signal (z-score): -0.175
[19]
  glycan array binding signal (z-score): 0.021
[20]
  glycan array binding signal (z-score): -0.241
[21]
  glycan array binding signal (z-score): -0.23
[22]
  glycan array binding signal (z-score): -0.212
[23]
  glycan array binding signal (z-score): -0.033
[24]
  glycan array binding signal (z-score): -0.07
[25]
  glycan array binding signal (z-score): -0.212
[26]
  glycan array binding signal (z-score): -0.223
[27]
  glycan array binding signal (z-score): -0.253
[28]
  glycan array binding signal (z-score): -0.225
[29]
  glycan array binding signal (z-score): 0.245
[30]
  glycan array binding signal (z-score): -0.224
[31]
  glycan array binding signal (z-score): -0.207
[32]
  glycan array binding signal (z-score): -0.17
[33]
  glycan array binding signal (z-score): -0.299
[34]
  glycan array binding signal (z-score): -0.25
[35]
  glycan array binding signal (z-score): -0.27
[36]
  glycan array binding signal (z-score): -0.305
[37]
  glycan array binding signal (z-score): -0.239
[38]
  glycan array binding signal (z-score): -0.219
[39]
  glycan array binding signal (z-score): 0.601
[40]
  glycan array binding signal (z-score): -0.236
[41]
  glycan array binding signal (z-score): -0.173
[42]
  glycan array binding signal (z-score): -0.209
[43]
  glycan array binding signal (z-score): -0.204
[44]
  glycan array binding signal (z-score): -0.228
[45]
  glycan array binding signal (z-score): -0.084
